Results reported in the supplement of paper PMC11417369.
The list shows a part of the results.

System: PF3D7_0420300 AP2 domain 1 (GST-tagged)
Test: gcPBM binding intensity (ln(normalized median fluorescence intensity)); higher = stronger DNA binding
In short: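 For binding intensity, the highest Masliner-normalised natural-log median intensity across replicate spots of either probe orientation was taken. Protein bound to the array was stained with Alexa488 anti-GST antibody and scanned at 488 nm. The protein, GST-tagged P. falciparum DNA-binding domains from E. coli at about 25 μg on average, had been applied for 1 h to an Agilent 4 × 180k array of primer-extended double-stranded 36-bp intergenic genomic probes and negative controls.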

Sequence | gcPBM binding intensity (ln)
AAGGTAAACAGACACACACACATACAAAAAAAAAAA [CACACA_site3768] | 10
ATATATATATTATATGCACACTTATATTTCATTAGA [CACACA_site5439] | 9.33
TATTTATAAATGAACACACACGCAATTTGAATCGAA [CACACA_site3371] | 9.72
TTTTTATATTTCAACATATCACAATTTTATATATCT [CACACA_negctrl_site178] | 9.24
AACACATACAGATATGCACACATTTTATTCCATTAT [CACACA_site5565] | 9.65
CTATATCATTTTCTAGCACACACATTGTTATTACCT [CACACA_site8204] | 9.84
GAATATAAACCTATTACACACATCTATATGTACATT [CACACA_site1914] | 9.67
TTTTTTATGCTAACTTCTTTTTCCTTATAAAATTGG [TGCATGCA_negctrl_site598] | 9.15
ATTTTTTTTATTATTACACACATATAACAAAAAAAT [CACACA_site6934] | 9.4
TATATAACATATAACACACATACTTAGTATTACATA [CACACA_site3099] | 9.51
ACAGTATCAATATGGATAAAAATGTCCATATGCCTG [TGCATGCA_negctrl_site482] | 9.2
TAAATATATATATACACACACACCAAAGCAATAGAT [CACACA_site2940] | 10.3
TTATATATACCTAAGACACACACATATATATATATA [CACACA_site8153] | 9.63
ATTAAATATGTCAAGTGTACAAAATGTAAAAAAAAA [XGTACX_site4119] | 9.25
GCCATTGTACCATCCACACACATATAAATATGTATA [CACACA_site7303] | 9.85
TATGAAGAAAAGAATTGTACGATGTTTATTTTGTAT [XGTACX_site8614] | 9.22
TGTTAATAGAAATACGTGCACACTAAAGGGAAAACA [CACACA_site1485] | 9.48
TTGTTATCTACCTGTAGTACATATATTATGTAATAT [XGTACX_site735] | 9.2
TTTTTATATTTTATAGTGCAAAAACTTACATAAAAT | 8.85
ATATAATGGACCATAGTGCATAAAAATAACAAAAAA [GTGCAC_site9558] | 9.41
TATTTTTTTTCTTTATTTATAACGCTCAATATATTC [GTGCAC_negctrl_site265] | 9.15
TGGAAATATATATATATATATACATATATATATAGC [XGTACX_negctrl_site107] | 9.02

Sequence | gcPBM binding intensity (ln)
TTTTAATATTTTAAGAGTACAGAAATATATAATATG [XGTACX_site4955] | 9.01
CATATAAATATATATACACACACACCGTAATACATA [CACACA_site9158] | 10.2
ATTTTATAACATTCATGTACACATTTCATTTATTTG [XGTACX_site3028] | 9.55
AGAGACACTTTTTATTGTACAAGAGGAGGTTACCTT [XGTACX_site8768] | 9.17
TACGAAAAAAAAAAAAAAAAAAAAAAACACAAAAAA [CACACA_negctrl_site1643] | 9.14
AATACCATAATCAATGCACACATAACAAAATATTAT [CACACA_site8873] | 9.72
TTATTTATTTTTATATGTACACAAAAAAAAAAAAAA [XGTACX_site1459] | 8.59
AATATATATAACGTTGGTACACAAAAATTATTAAAT [XGTACX_site8572] | 9.6
CCTCATCCACTATGCACACAAAAAAGAAATACACTA [CACACA_site3422] | 9.48
TTTTTTTTTTTTTTAACACACATATATATATTTTTC [CACACA_site1922] | 9.26
TTCTCAAATATAATAAAATTATAAAGTGACCTAACT [GTGCAC_negctrl_site493] | 9.02
TAATGGATTATACGTGCACACATATATACAAATAAA [CACACA_site8116] | 9.42
TTTTTTTTTAAATATACACACACATTTATACATATA [CACACA_site9122] | 9.64
TTTGGAATATAATATTGTACATATTATATATATATA [XGTACX_site3187] | 9.07
TTCTATTATGTGACTCAATTCTTCATGGGTGTATAA [TGCATGCA_negctrl_site140] | 9.23
AATGTATTTATTTTTTGTACATATCGTGTGTGTATT [XGTACX_site1009] | 9.85
AATTATTCTCTTTTCATTTGAACAATATGCTTAAAA [CACACA_negctrl_site995] | 9.09
AATATTTTTTAAATGTGTACATAGGTATAGCACACA [XGTACX_site8690] | 9.26
ACAAATATGAGAAATTGTACATATAATAAAATAGTA [XGTACX_site2573] | 9.31
ACACATTCGAAAAATTGTACATATATAACAGAATAT [XGTACX_site7106] | 9.53
AGTCATATAAATAGTAGTACTGTGTGTGAAGAAAAA [XGTACX_site5056] | 9.7
GACTGCACTTTAAGCACACAAATATATTTTTTTTAT [CACACA_site1249] | 9.35
